In the supplement of paper PMC3334620:
The full ranking holds about 33,000 sequences; the median of “E-score (-0.5 to 0.5)” is about -0.035, and the highest 2% start at about 0.35. The list shows a part of the results.

Each sequence was assayed against T1, Pdr3 (UniProt P33200) (assay: PBM E-score (8-mer binding enrichment) (E-score (-0.5 to 0.5)); higher = stronger / more preferred TF binding; most listed sequences are background and not binding sites). Conditions: protein concentration: 200 nM; construct: GST-full length.
T1 sequence: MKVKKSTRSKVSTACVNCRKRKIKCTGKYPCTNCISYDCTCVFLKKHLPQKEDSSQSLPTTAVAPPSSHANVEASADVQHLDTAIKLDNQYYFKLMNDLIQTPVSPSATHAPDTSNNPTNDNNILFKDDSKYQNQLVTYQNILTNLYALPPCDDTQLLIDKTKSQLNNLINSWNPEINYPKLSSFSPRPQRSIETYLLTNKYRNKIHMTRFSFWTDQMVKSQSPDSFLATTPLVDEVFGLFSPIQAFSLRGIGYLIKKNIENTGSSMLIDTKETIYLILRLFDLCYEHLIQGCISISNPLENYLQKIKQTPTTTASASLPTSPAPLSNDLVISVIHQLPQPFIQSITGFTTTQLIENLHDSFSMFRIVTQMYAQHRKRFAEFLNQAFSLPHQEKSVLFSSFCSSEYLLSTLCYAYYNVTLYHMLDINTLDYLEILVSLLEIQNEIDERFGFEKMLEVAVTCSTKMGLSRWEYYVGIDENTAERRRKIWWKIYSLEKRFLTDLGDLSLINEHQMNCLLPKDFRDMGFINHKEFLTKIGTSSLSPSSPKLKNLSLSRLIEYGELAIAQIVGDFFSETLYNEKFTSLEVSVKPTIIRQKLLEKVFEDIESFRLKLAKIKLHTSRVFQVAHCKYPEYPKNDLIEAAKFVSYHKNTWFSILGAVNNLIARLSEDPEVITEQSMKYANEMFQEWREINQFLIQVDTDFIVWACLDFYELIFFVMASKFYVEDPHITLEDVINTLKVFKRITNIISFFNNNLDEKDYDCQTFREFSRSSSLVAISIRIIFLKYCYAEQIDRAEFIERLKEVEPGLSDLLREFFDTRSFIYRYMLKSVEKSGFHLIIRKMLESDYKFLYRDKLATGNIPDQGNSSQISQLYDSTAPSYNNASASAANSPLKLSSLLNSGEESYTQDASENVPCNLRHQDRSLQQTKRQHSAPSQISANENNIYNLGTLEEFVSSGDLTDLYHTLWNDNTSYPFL
Outline: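 GST-tagged yeast TFs (full-length or DNA-binding domain) were made by PURExpress in vitro transcription/translation and applied at about 100-200 nM to universal all-10-mer Agilent arrays. The arrays were made double-stranded by primer extension, on fresh or once-stripped slides. Bound protein was detected with fluorescent anti-GST, and scans were normalised with masliner. Each ungapped eight-base word, pooled with its reverse complement, received an E-score (modified Wilcoxon-Mann-Whitney statistic) from the Universal PBM Analysis Suite.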

Row | Sequence | PBM E-score
1 | CCCAGGAA | -0.175
2 | ATGCCGAA | 0.261
3 | GAAGACGA | -0.0212
4 | ACGTTGCA | -0.0806
5 | ATTCGAAT | -0.169
6 | CTTGGCTA | -0.151
7 | AACCTGTA | -0.187
8 | GACCCCGC | 0.189
9 | ACTATTTG | -0.0398
10 | AGTGGACG | 0.0406
11 | CTCATGAC | 0.0737
12 | AGACGGCG | 0.166
13 | CCAAGCAG | -0.0496
14 | AGGCGTGG | -0.371
15 | AACCAGTC | -0.11
16 | AATCTGTG | 0.0867
17 | AACTAGCG | 0.0803
18 | ACACGTCA | -0.0841
19 | ATTCCTCA | -0.0935
20 | CCGAAACA | 0.168
21 | CTTGACTA | -0.119
22 | AGCTGGAA | -0.127
23 | AGTCTTTA | -0.398
24 | AGTATCAT | 0.165
25 | CTCGCGAC | 0.0674

Row | Sequence | PBM E-score
26 | CCAAGACA | 0.0447
27 | TACGGGCA | 0.00013
28 | ATAGATAG | -0.216
29 | ACGCACAT | -0.092
30 | GGATCGTA | 0.138
31 | GTCGGCTA | 0.0468
32 | CTATCAGC | -0.156
33 | CCATTGAA | 0.0398
34 | ATTACGTG | -0.135
35 | CGCTTACG | -0.16
36 | GGATCTAA | 0.0614
37 | ACACTCCA | -0.195
38 | CTAACCCC | -0.115
39 | GAGGGATA | -0.105
40 | GCCTTCAA | -0.0715
41 | ATATCGCC | 0.277
42 | AGTGCATG | -0.113
43 | AACACACT | -0.0524
44 | CCTAGCGC | -0.0156
45 | CAACCGTC | -0.0821
46 | ACTTTCAC | 0.0246
47 | ATTATACC | 0.199
48 | ATATTGCA | 0.0521
49 | TAGCCAAA | 0.011
50 | TGACCCAA | -0.125

Row | Sequence | PBM E-score
51 | CTCTAGTC | -0.224
52 | AATAGTAG | -0.00984
53 | AAAGTACG | -0.0945
54 | GTCATACA | -0.141
55 | GTTTGATA | 0.121
56 | CGCAATTA | 0.185
57 | ACAAAGCT | 0.0501
58 | AGCCCTGG | -0.169
59 | GGCCCTCA | -0.125
60 | GCCACTAC | -0.0549
61 | ACACATTA | -0.0668
62 | ACGCATAA | -0.104
63 | AAACTGGC | -0.0559
64 | ATCAGAAC | -0.0723
65 | AGGGGGTA | -0.346
66 | AGCTGGCA | -0.0705
67 | CCTTGCGA | 0.0345
68 | GGCACGTA | -0.0982
69 | AGTCGGAG | 0.134
70 | GCAACGGC | 0.152
71 | ATACGGGG | 0.047
72 | CTTTCGAC | -0.112
73 | GAGCCATA | -0.117
74 | AAACCATA | -0.0435
75 | AAGAGCAC | -0.102

Row | Sequence | PBM E-score
76 | CCACGCGA | -0.0519
77 | AAGATGAG | -0.341
78 | GAGCTAGC | -0.119
79 | CTCGCTAC | -0.0291
80 | GATAGTGA | -0.0683
81 | CCAAGGGG | -0.0916
82 | ACAGTCAG | -0.119
83 | ACAATTAA | 0.0595
84 | CACCAACC | 0.0571
85 | CACACTGG | -0.167
86 | AGAAGCGA | -0.0702
87 | CAATCAGA | -0.223
88 | CGTGTCGC | 0.169
89 | AACACTTA | -0.0344
90 | CATGGATA | -0.0821
91 | GCGAAAAC | -0.115
92 | CGTTAACA | -0.161
93 | CGGGAGTC | 0.113
94 | ATAACAGG | -0.267
95 | AATAACGT | -0.00983
96 | ACTGTTAT | -0.0454
97 | AAGTAACT | 0.0927
98 | ATCTGCAT | 0.0129
99 | CCAGCCGG | 0.261
100 | TCAGTGGA | -0.116

Row | Sequence | PBM E-score
101 | ACAAACGA | 0.00467
102 | AGTGATAG | -0.175
103 | TGCACGAA | -0.185
104 | TCAAAAAA | 0.0745
105 | ATCGCGAA | 0.283
106 | AAGGCGAT | -0.153
107 | CTGGGCGA | -0.0711
108 | ATCGACCG | 0.0883
109 | CGAGTTGC | 0.0466
110 | GCCTCACA | -0.114
111 | CGAAATCA | 0.0981
112 | CGAGAAGA | -0.0273
113 | CACTGAGG | -0.0522
114 | CCAGAATC | 0.0384
115 | GCTCTAAC | -0.183
116 | ATTCTGAC | -0.0174
117 | ATGTGAAG | -0.0856
118 | TGTAGTAA | -0.016
119 | AATTGAAA | -0.0894
120 | CATCATTC | 0.108
121 | GATAATCA | 0.0481
122 | ATGAGTGA | -0.22
123 | TCAACCCA | 0.0865
124 | AGGTAAGC | -0.114
125 | CAGAAGTA | -0.143

Row | Sequence | PBM E-score
126 | CTCGGCTC | 0.131
127 | CATGGGGC | -0.0792
128 | GCAGCCAA | 0.0191
129 | ATAACTAT | -0.0524
130 | GGCATGAC | -0.197
131 | TACTAATA | -0.0724
132 | GCGCGCAC | 0.267
133 | CGGTGACG | -0.0532
134 | CTCATCTC | 0.0412
135 | AACGCGAA | 0.109
136 | GTCGAGTA | -0.0107
137 | GTTAGACA | 0.0146
138 | ACGCCGCC | 0.0831
139 | AGTGAGTA | 0.00272
140 | CACTTTTA | -0.168
141 | AATGCGTG | -0.116
142 | AATCCGGA | 0.455
143 | CGCCTCAA | -0.0363
144 | CGTGTGTA | 0.0958
145 | CCGCTGAA | 0.134
146 | CCTGCTCA | -0.12
147 | ACTACGAG | -0.148
148 | GCCTTGAC | -0.0613
149 | AAAAAGGT | -0.0428
150 | AAGTAACA | 0.0139

Row | Sequence | PBM E-score
151 | CTAGTAGC | -0.158
152 | CCAGCGGC | 0.0958
153 | GCCCAGAA | -0.0633
154 | CCTTAGCG | -0.125
155 | AAGGTCTA | -0.0934
156 | AATCGCAT | -0.0118
157 | ATTGAAGC | -0.014
158 | CCAACACA | -0.111
159 | TATTTGAA | 0.0114
160 | ACTCATAC | 0.126
161 | CTTAGACA | -0.244
162 | CAACTGGC | -0.117
163 | CCTCCACC | -0.141
164 | GAGATCGA | 0.034
165 | GCTGACCC | -0.0653
166 | ACGATCAA | -0.159
167 | ACGGAGCA | 0.343
168 | ACTTTACT | -0.137
169 | AGTTATTC | 0.0364
170 | ATACAGTG | -0.129
171 | ACTTGGTA | -0.15
172 | CTGGGGAC | -0.192
